In PubChem BioAssay AID1768 (National Center for Advancing Translational Sciences (NCATS), 2009):
About 620 (0.23%) of roughly 270,000 compounds were called active. The inconclusive results got no clear call from the source; some entries with a clear call stand among them for comparison. Calls come from the whole dose curve; as a rule, active = well fitted inhibition curve with a large enough effect in the polarisation, with a control signal flat (not every such curve was filed as active); inconclusive = small, poorly fitted or top-dose-only effect, or effect the other way, or a change in a side signal; inactive = no such curve, though single readings can be large or run the other way; the % refers to the polarisation. Potencies of inconclusive entries are doubtful fits and often do not repeat. A note “side channel” means that the fit belongs to a control or component signal, not to the main read-out.

Each compound was assayed against Menin (Homo sapiens) (UniProt O00255) (assay: qHTS Assay for Inhibitors Targeting the Menin-MLL Interaction in MLL Related Leukemias: Competition With Texas Red Labeled MLL-derived Mutant Peptide). Conditions: fluorescence polarization; FP activity change, negative = inhibition: at 61.6 µM (top of the series).
Chain of UniProt O00255 (O00255 whole entry, looked up): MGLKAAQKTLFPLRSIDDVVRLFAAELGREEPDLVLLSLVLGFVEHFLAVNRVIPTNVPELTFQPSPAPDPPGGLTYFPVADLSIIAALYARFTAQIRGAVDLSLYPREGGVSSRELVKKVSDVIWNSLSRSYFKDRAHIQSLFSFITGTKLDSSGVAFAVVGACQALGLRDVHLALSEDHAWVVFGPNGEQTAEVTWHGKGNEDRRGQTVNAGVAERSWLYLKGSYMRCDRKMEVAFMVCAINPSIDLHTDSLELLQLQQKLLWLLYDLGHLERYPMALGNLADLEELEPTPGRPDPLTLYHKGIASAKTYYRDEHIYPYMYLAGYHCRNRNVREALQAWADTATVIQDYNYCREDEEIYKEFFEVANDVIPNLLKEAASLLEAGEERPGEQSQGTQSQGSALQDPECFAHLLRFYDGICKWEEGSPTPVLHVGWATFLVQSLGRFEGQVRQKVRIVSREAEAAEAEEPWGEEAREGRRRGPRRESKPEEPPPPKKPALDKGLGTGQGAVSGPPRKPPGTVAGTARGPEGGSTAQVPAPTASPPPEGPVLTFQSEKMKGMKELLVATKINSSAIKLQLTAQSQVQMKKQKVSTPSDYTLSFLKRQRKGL
Potency is the fitted concentration of half-maximal effect; tags give direction and shape of the fitted curve or compound fluorescence and quenching.
Throughout, for FP activity change, negative = inhibition: % of control where 0% means no effect.

SMILES | Potency | FP activity change, negative = inhibition
Cc1ccc(S(=O)(=O)Nc2cc(C)c(O)c(S(=O)(=O)c3ccc(C)cc3)c2)cc1 | inconclusive: 39.8 µM [quencher, side channel, single point] | 
COc1ccc(NC(=O)CSc2nnc(Cc3cccn3C)n2CCc2ccccc2)c(OC)c1 |  | inactive: 7.98%
CC(=O)Nc1ccc(C(=O)CSc2ncn(-c3ccccc3)n2)cc1 |  | inactive: 0.124%
O=C(CC(Sc1ccc(Br)cc1)C(=O)O)c1ccc(Br)cc1 (stereo not drawn) | inconclusive: 35.5 µM [inhibitor, single point] | 
CCOc1ccc(/C=C(\C(=O)O)c2ccc(S(=O)(=O)N3CCOCC3)s2)cc1OC | inconclusive: 25.1 µM [quencher, side channel, single point] | 
Cn1c(=O)[nH]c(=O)c2c1nc(N1CCCCC1)n2CCCSc1nnnn1-c1ccccc1 | inconclusive: 35.5 µM [fluorescent, side channel, partial curve] | 
CC(=O)Nc1sc(N/N=C\c2ccco2)nc1-c1cccs1 | inconclusive: 17.8 µM [quencher, side channel, single point] | 
N#C/C(=C/c1ccc(N2CCOCC2)o1)C(=O)Nc1ccccc1 | inconclusive: 11.2 µM [quencher, side channel, partial curve] | 
COc1cc(OC)c(C2NC(=O)CCC2[N+](=O)[O-])cc1OC (stereo not drawn) | inconclusive: 2.82 µM [inhibitor, partial curve] | 
COC(=O)NC(c1cccc(C)c1)[C@]1(C(C)=O)CCCC1=O (stereo partly drawn) |  | inactive: -0.0444% [at 11.7 µM]
CCOC(=O)C(C)Sc1ncnc2c1c(-c1ccccc1)cn2-c1ccc(OC)cc1 (stereo not drawn) |  | inactive: 5.98%
CC1(C)Cc2cccc(Oc3cc(NN4CCCCC4)c([N+](=O)[O-])cc3[N+](=O)[O-])c2O1 | inconclusive: 8.91 µM [quencher, side channel, partial curve] | 
CC1=CC(C)(C)N(C(=O)CSc2nnc(N)s2)c2cc(C)c(C)cc21 | inconclusive: 2.51 µM [inhibitor, single point] | 
O=C(O)C1NCCN(C(=O)c2ccc3c(ccc4ccccc43)c2)C1C(=O)O (stereo not drawn) |  | inactive: -1.96%
CN(c1ccccc1)S(=O)(=O)c1ccc(NC(=O)COc2ccccc2)cc1 | inconclusive: 25.1 µM [quencher, side channel, single point] | 
CCOC(=O)C1(CC2CCCCO2)CCN(Cc2cc3ccccc3[nH]2)CC1 (stereo not drawn) | inconclusive: 20 µM [quencher, side channel, partial curve] | 
CCOC(=O)N1CCN(C(=O)CN(C)S(=O)(=O)c2ccc3c(c2)C(C)(C)C(=O)N3C)CC1 | inconclusive: 39.8 µM [inhibitor, single point] | 
O=C(/C=C/c1cccc([N+](=O)[O-])c1)Nc1cc(C(=O)O)cc(C(=O)O)c1 | inconclusive: 10 µM [quencher, side channel, partial curve] | 
Fc1ccc(Nc2ncnc3sccc23)cc1 | inconclusive: 35.5 µM [quencher, side channel, single point] | 

SMILES | Potency | FP activity change, negative = inhibition
Cc1ccc(-c2ccc(SCC(=O)Nc3cc(C)on3)nn2)cc1 | inconclusive: 28.2 µM [fluorescent, side channel, single point] | 
Cc1ccc(S(=O)(=O)N(C)c2ccc(OCC(=O)Nc3nc(-c4ccccc4)cs3)cc2)cc1 | inconclusive: 20 µM [inhibitor, single point] | 
COc1ccc(CCNC(=O)CCc2cn(C)c3ccccc23)c(OC)c1 | inconclusive: 11.2 µM [fluorescent, side channel, partial curve] | 
C=CCc1cccc(CNc2c(C)n(C)n(-c3ccccc3)c2=O)c1O | inconclusive: 39.8 µM [inhibitor, single point] | 
CCC(=O)Nc1nc(-c2cc([N+](=O)[O-])cs2)cs1 | inconclusive: 35.5 µM [quencher, side channel, single point] | 
O=C(c1ccc(Cl)c([N+](=O)[O-])c1)N(Cc1cccc(Cl)c1)C1CCS(=O)(=O)C1 (stereo not drawn) |  | inactive: -13.8%
Cc1cc([N+](=O)[O-])ccc1NCc1ccc2c(c1)OCCO2 | inconclusive: 14.1 µM [quencher, side channel, partial curve] | 
COc1ccc(-c2csc(NC(=O)Cc3ccccc3)n2)cc1OC | inconclusive: 11.2 µM [quencher, side channel, partial curve] | 
S=c1nc2ccccc2c2nc(-c3ccccc3)[nH]n12 | inconclusive: 31.6 µM [quencher, side channel, single point] | 
CN(CC(=O)Nc1nc2ccc(F)cc2s1)S(=O)(=O)c1ccc(Cl)cc1 | inconclusive: 20 µM [quencher, side channel, partial curve] | 
CC1CCN(CC2C(=O)O[C@@H]3C[C@@]4(C)CCC[C@H](C)C4=C[C@H]23)CC(C)(C)C1 (stereo partly drawn) | inconclusive: 20 µM [fluorescent, side channel, partial curve] | 
Cc1oc2c(CN3CCOCC3)c(O)ccc2c(=O)c1-c1ccccc1 |  | inactive: -13.1%
Cc1[nH][nH]c(=O)c1N=Nc1ccccc1C#N | inconclusive: 39.8 µM [quencher, side channel, single point] | 
O=C1/C(=C/c2cccnc2)SC(=S)N1C1CCS(=O)(=O)C1 (stereo not drawn) |  | inactive: -0.211%
Cc1cc(C)c(C(=O)Cn2cnc3cc([N+](=O)[O-])ccc3c2=O)cc1C | inconclusive: 25.1 µM [quencher, side channel, partial curve] | 
CC(=O)N1CCN(S(=O)(=O)c2cccc(C(=O)Nc3nc4ccccc4[nH]3)c2)CC1 | inconclusive: 12.6 µM [inhibitor, partial curve] | 
CCN(CC)CCNc1nc(SC)nc2sc3c(c12)CCN(C)C3 | inconclusive: 11.2 µM [inhibitor, partial curve] | 
C/C(=N\NC(=S)NC1CCCCC1)c1ccc(C#N)cc1 | inconclusive: 25.1 µM [fluorescent, side channel, single point] | 
C[C@@H]1CCC(=O)N(CC[C@H](Oc2ccccc2)c2ccccc2)CC1 | inconclusive: 39.8 µM [fluorescent, side channel, partial curve] | 
